Results published in PMC9911399, “Two distinct binding modes provide the RNA-binding protein RbFox with extraordinary sequence specificity”.
Changes are numbered by the printed parent chain; changes in the protein carry UniProt numbers. The list shows a part of the results.

T1: RBFOX1 RRM RbFoxmut (Fox-RRM*) (Homo sapiens, UniProt Q9NWB1 109-208, R118D;E147R;N151S;E152T)
T1 sequence: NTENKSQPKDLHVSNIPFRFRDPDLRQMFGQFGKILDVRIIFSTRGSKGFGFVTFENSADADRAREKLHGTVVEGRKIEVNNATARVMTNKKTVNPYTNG

B1: CAGCCUG (DNA:RNA)
RNA: GGGAGACCGGAAUUCAGAUUGUCCCAGCCUGUUAAAUCCCGUCGUAGCCACCA
DNA 1: CAATCTGAATTCCGGTCTCCC
DNA 2: TGGTGGCTACGACGGGATT
B2: AUGCUUC (DNA:RNA)
RNA: B1 RNA with C25A, A26U, C29U, G31C
DNA 1: CAATCTGAATTCCGGTCTCCC
DNA 2: TGGTGGCTACGACGGGATT
B3: CCACGUC (DNA:RNA)
RNA: B1 RNA with A26C, G27A, C29G, G31C
DNA 1: CAATCTGAATTCCGGTCTCCC
DNA 2: TGGTGGCTACGACGGGATT
B4: CCAACUC (DNA:RNA)
RNA: B1 RNA with A26C, G27A, C28A, G31C
DNA 1: CAATCTGAATTCCGGTCTCCC
DNA 2: TGGTGGCTACGACGGGATT
B5: UCCUAGG (DNA:RNA)
RNA: B1 RNA with C25U, A26C, G27C, C28U, C29A, U30G
DNA 1: CAATCTGAATTCCGGTCTCCC
DNA 2: TGGTGGCTACGACGGGATT
B6: GUGAUCA (DNA:RNA)
RNA: B1 RNA with C25G, A26U, C28A, C29U, U30C, G31A
DNA 1: CAATCTGAATTCCGGTCTCCC
DNA 2: TGGTGGCTACGACGGGATT
B7: UCAAGCU (DNA:RNA)
RNA: GGGAGACCGGAAUUCAGAUUGUCCUCAAGCUUUAAAUCCCGUCGUAGCCACCA
DNA 1: CAATCTGAATTCCGGTCTCCC
DNA 2: TGGTGGCTACGACGGGATT
B8: AAUGAUG (DNA:RNA)
RNA: B1 RNA with C25A, G27U, C28G, C29A
DNA 1: CAATCTGAATTCCGGTCTCCC
DNA 2: TGGTGGCTACGACGGGATT
B9: ACAUAGA (DNA:RNA)
RNA: B7 RNA with U25A, A28U, G29A, C30G, U31A
DNA 1: CAATCTGAATTCCGGTCTCCC
DNA 2: TGGTGGCTACGACGGGATT
B10: GUCCAGG (DNA:RNA)
RNA: B1 RNA with C25G, A26U, G27C, C29A, U30G
DNA 1: CAATCTGAATTCCGGTCTCCC
DNA 2: TGGTGGCTACGACGGGATT
B11: AUCGUUC (DNA:RNA)
RNA: B1 RNA with C25A, A26U, G27C, C28G, C29U, G31C
DNA 1: CAATCTGAATTCCGGTCTCCC
DNA 2: TGGTGGCTACGACGGGATT
B12: ACGCGCG (DNA:RNA)
RNA: B1 RNA with C25A, A26C, C29G, U30C
DNA 1: CAATCTGAATTCCGGTCTCCC
DNA 2: TGGTGGCTACGACGGGATT
B13: UAUUCGG (DNA:RNA)
RNA: B1 RNA with C25U, G27U, C28U, U30G
DNA 1: CAATCTGAATTCCGGTCTCCC
DNA 2: TGGTGGCTACGACGGGATT
B14: UCCGGGG (DNA:RNA)
RNA: B7 RNA with A27C, A28G, C30G, U31G
DNA 1: CAATCTGAATTCCGGTCTCCC
DNA 2: TGGTGGCTACGACGGGATT
B15: CGCUAUC (DNA:RNA)
RNA: B1 RNA with A26G, G27C, C28U, C29A, G31C
DNA 1: CAATCTGAATTCCGGTCTCCC
DNA 2: TGGTGGCTACGACGGGATT
B16: UGGUGUU (DNA:RNA)
RNA: B7 RNA with C26G, A27G, A28U, C30U
DNA 1: CAATCTGAATTCCGGTCTCCC
DNA 2: TGGTGGCTACGACGGGATT
B17: CGUCAAA (DNA:RNA)
RNA: B1 RNA with A26G, G27U, C29A, U30A, G31A
DNA 1: CAATCTGAATTCCGGTCTCCC
DNA 2: TGGTGGCTACGACGGGATT
B18: CUUAAUA (DNA:RNA)
RNA: B1 RNA with A26U, G27U, C28A, C29A, G31A
DNA 1: CAATCTGAATTCCGGTCTCCC
DNA 2: TGGTGGCTACGACGGGATT
B19: CGGCUGC (DNA:RNA)
RNA: B1 RNA with A26G, C29U, U30G, G31C
DNA 1: CAATCTGAATTCCGGTCTCCC
DNA 2: TGGTGGCTACGACGGGATT
B20: CCGCUAU (DNA:RNA)
RNA: B1 RNA with A26C, C29U, U30A, G31U
DNA 1: CAATCTGAATTCCGGTCTCCC
DNA 2: TGGTGGCTACGACGGGATT
B21: GAUAAAG (DNA:RNA)
RNA: B1 RNA with C25G, G27U, C28A, C29A, U30A
DNA 1: CAATCTGAATTCCGGTCTCCC
DNA 2: TGGTGGCTACGACGGGATT
B22: UUAGGGA (DNA:RNA)
RNA: B7 RNA with C26U, A28G, C30G, U31A
DNA 1: CAATCTGAATTCCGGTCTCCC
DNA 2: TGGTGGCTACGACGGGATT
B23: GUGUAAU (DNA:RNA)
RNA: B1 RNA with C25G, A26U, C28U, C29A, U30A, G31U
DNA 1: CAATCTGAATTCCGGTCTCCC
DNA 2: TGGTGGCTACGACGGGATT
B24: AUCGCGC (DNA:RNA)
RNA: B1 RNA with C25A, A26U, G27C, C28G, U30G, G31C
DNA 1: CAATCTGAATTCCGGTCTCCC
DNA 2: TGGTGGCTACGACGGGATT
B25: GCAGCAA (DNA:RNA)
RNA: B7 RNA with U25G, A28G, G29C, C30A, U31A
DNA 1: CAATCTGAATTCCGGTCTCCC
DNA 2: TGGTGGCTACGACGGGATT
B26: AUGCCAA (DNA:RNA)
RNA: B1 RNA with C25A, A26U, U30A, G31A
DNA 1: CAATCTGAATTCCGGTCTCCC
DNA 2: TGGTGGCTACGACGGGATT
B27: AAGAGCC (DNA:RNA)
RNA: B7 RNA with U25A, C26A, A27G, U31C
DNA 1: CAATCTGAATTCCGGTCTCCC
DNA 2: TGGTGGCTACGACGGGATT
B28: GGCAUAA (DNA:RNA)
RNA: B7 RNA with U25G, C26G, A27C, G29U, C30A, U31A
DNA 1: CAATCTGAATTCCGGTCTCCC
DNA 2: TGGTGGCTACGACGGGATT
B29: GUUAACC (DNA:RNA)
RNA: B7 RNA with U25G, C26U, A27U, G29A, U31C
DNA 1: CAATCTGAATTCCGGTCTCCC
DNA 2: TGGTGGCTACGACGGGATT
B30: CACCCCA (DNA:RNA)
RNA: B1 RNA with G27C, U30C, G31A
DNA 1: CAATCTGAATTCCGGTCTCCC
DNA 2: TGGTGGCTACGACGGGATT
B31: CUGGCCG (DNA:RNA)
RNA: B1 RNA with A26U, C28G, U30C
DNA 1: CAATCTGAATTCCGGTCTCCC
DNA 2: TGGTGGCTACGACGGGATT

biological target: T1, RBFOX1 RRM RbFoxmut (Fox-RRM*); assay: EMSA; HiTS-Eq, 1 nM pool, 10 min; buffer printed only for the single-RNA assays: 10 mM Tris pH 7.5, 150 mM NaCl, 3.4 mM EDTA, 0.001% NP-40, 30 C; settings: tags: His6 N-terminal (pET28a); label: 5' 32P
Procedure, shortened: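 Purified RbFox RRM, wild type or mutant, was incubated for 10 min in 50 µL with 1 nM of a 5′-radiolabelled RNA pool carrying 7 randomized nucleotides, whose flanks were annealed to DNA oligonucleotides, over a series of increasing protein concentrations. Unbound RNA was resolved on 8% native PAGE, cut out, reverse-transcribed, barcoded by PCR and sequenced on an Illumina HiSeq 2500. Relative association constants were derived from changes in read counts for each RNA species versus the control reaction and normalised to the cognate motif.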

With B1 as the binder, how does the binding signal read?
Its binding signal is 0.094 KA relative to UGCAUGU.

With B2 as the binder, how does the binding signal read?
The binding signal was 0.119 KA relative to UGCAUGU.

How did the binding signal turn out when B3 was run?
The binding signal was 0.0866 KA relative to UGCAUGU.

How did the binding signal turn out when B4 was run?
Its binding signal is 0.0638 KA relative to UGCAUGU.

B5 was tested. Which binding signal did it give?
The binding signal was 0.0801 KA relative to UGCAUGU.

How did the binding signal turn out when B6 was run?
The binding signal was 0.125 KA relative to UGCAUGU.

Which binding signal does the source give for B7 here?
The binding signal was 0.0692 KA relative to UGCAUGU.

How did the binding signal turn out when B8 was run?
Its binding signal is 0.0977 KA relative to UGCAUGU.

For B9, which binding signal is on record?
The binding signal was 0.145 KA relative to UGCAUGU.

For B10, which binding signal is on record?
Its binding signal is 0.0991 KA relative to UGCAUGU.

B11 was tested. Which binding signal did it give?
Its binding signal is 0.0834 KA relative to UGCAUGU.

With B12 as the binder, how does the binding signal read?
Its binding signal is 0.152 KA relative to UGCAUGU.

B13 was tested. Which binding signal did it give?
Its binding signal is 0.0755 KA relative to UGCAUGU.

How did the binding signal turn out when B14 was run?
Its binding signal is 0.049 KA relative to UGCAUGU.

How did the binding signal turn out when B15 was run?
The binding signal was 0.0991 KA relative to UGCAUGU.

Which binding signal does the source give for B16 here?
Its binding signal is 0.141 KA relative to UGCAUGU.

With B17 as the binder, how does the binding signal read?
Its binding signal is 0.0871 KA relative to UGCAUGU.

Which binding signal does the source give for B18 here?
Its binding signal is 0.144 KA relative to UGCAUGU.

How did the binding signal turn out when B19 was run?
Its binding signal is 0.105 KA relative to UGCAUGU.

B20 was tested. Which binding signal did it give?
Its binding signal is 0.0947 KA relative to UGCAUGU.

Which binding signal does the source give for B21 here?
Its binding signal is 0.0614 KA relative to UGCAUGU.

B22 was tested. Which binding signal did it give?
Its binding signal is 0.0529 KA relative to UGCAUGU.

For B23, which binding signal is on record?
The binding signal was 0.129 KA relative to UGCAUGU.

B24 was tested. Which binding signal did it give?
Its binding signal is 0.146 KA relative to UGCAUGU.

How did the binding signal turn out when B25 was run?
The binding signal was 0.0749 KA relative to UGCAUGU.

With B26 as the binder, how does the binding signal read?
Its binding signal is 0.0996 KA relative to UGCAUGU.

For B27, which binding signal is on record?
Its binding signal is 0.135 KA relative to UGCAUGU.

For B28, which binding signal is on record?
Its binding signal is 0.117 KA relative to UGCAUGU.

B29 was tested. Which binding signal did it give?
The binding signal was 0.0736 KA relative to UGCAUGU.

How did the binding signal turn out when B30 was run?
Its binding signal is 0.125 KA relative to UGCAUGU.

B31 was tested. Which binding signal did it give?
Its binding signal is 0.139 KA relative to UGCAUGU.
